Molecular target: T1, IGF-1R-expressing MCF7 cells (Homo sapiens, UniProt P08069)
T1 construct: endogenous in cells; host or cells: MCF7 human mammary adenocarcinoma cells
Experiment: FACS staining of MCF7 cells with conditioned medium of chimeric antibody transfectants
Assay type: binding
Conditions: conditioned medium from transfected 293-EBNA cells
Experimental: (§1) The chP2A7 heavy chain expression vector and the chP2A7 light chain expression vector were co-transfected into 293-EBNA cells and transfected cells were tested for antibody secretion and specificity. Empty vector- and hu5c8-S228P/T299A IgG4 (a molecularly cloned CD40L-specific mAb)-transfected cells served as controls. […] CHO cells were co-transfected with the chP2A7 heavy chain expression vector and the chP2A7 light chain expression vector to generate stable lines expressing chimeric P2A7-aglycosylated huIgG4, kappa mAb.
as §1, with “The ch20C8” for “The chP2A7”, “and ch20C8” for “and the chP2A7”, “the ch20C8” for “the chP2A7”, “chimeric 20C8-aglycosylated” for “chimeric P2A7-aglycosylated”
The chP1G10 heavy chain expression vector and chP1G10 light chain expression vector were co-transfected into 293-EBNA cells and transfected cells were tested for antibody secretion and specificity (empty vector- and hu5c8-S228P/T299A IgG4 (a molecularly cloned CD40L-specific mAb)-transfected cells served as controls). […]

B1: ch20C8: chimeric 20C8-aglycosylated huIgG4, kappa mAb; SEQ ID NO:141, 143 (antibody)
heavy: DVQLQESGPDLVKPSQSLSLTCTVTGYSITSGYSWHWIRQFPGNKLEWMGYIHYSGGTNYNPSLKSRISITRDTSKNQFFLQLNSVTTEDTATYYCARSGYGYRSAYYFDYWGQGTTVTVSSASTKGPSVFPLAPCSRSTSESTAALGCLVKDYFPEPVTVSWNSGALTSGVHTFPAVLQSSGLYSLSSVVTVPSSSLGTKTYTCNVDHKPSNTKVDKRV[human IgG4 Fc with S228P T299A (EU numbers) not written out]
light: DIVLTQSPASLAVSLGQRATISCRASKSVSTSAYSYMHWYQQKPGQPPKLLIYLASNLESGVPARFSGSGSGTDFTLNIHPVEEEDAATYYCQHSRELPYTFGGGTKLEIKRTVAAPSVFIFPPSDEQLKSGTASVVCLLNNFYPREAKVQWKVDNALQSGNSQESVTEQDSKDSTYSLSSTLTLSKADYEKHKVYACEVTHQGLSSPVTKSFNRGEC
modifications: Chimeric antibody heavy chain; Chimeric antibody light chain
  binding to IGF-1R-expressing MCF7 cells (FACS): bound with a titratable dose response
